The other results are listed elsewhere or left out.
Legend:
Test in all cases: glycan array binding signal (z-score within array); higher = stronger binding
Settings in all cases: glycan notation: IUPAC condensed, linker removed
[1] = biological target: Neu5Ac(a2-3)Gal(b1-3)GalNAc6S
Outline: (§1)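 From the Consortium for Functional Glycomics database, 3228 arrays were curated, keeping only those whose protein sequence was available. Binding is given as a within-array Z-score averaged across arrays sharing a protein sequence and across linkers. Negative Z-scores can be read as non-binding.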

[2] = biological target: Neu5Ac(a2-3)Gal(b1-3)GlcNAc
Outline: as §1

[3] = biological target: Neu5Ac(a2-3)Gal(b1-3)GlcNAc(b1-2)Man
Outline: as §1

[4] = biological target: Neu5Ac(a2-3)Gal(b1-3)GlcNAc(b1-2)Man(a1-3)[GlcNAc(b1-4)][Neu5Ac(a2-3)Gal(b1-3)GlcNAc(b1-2)Man(a1-6)]Man(b1-4)GlcNAc(b1-4)GlcNAc
Outline: as §1

[5] = biological target: Neu5Ac(a2-3)Gal(b1-3)GlcNAc(b1-2)Man(a1-3)[Neu5Ac(a2-3)Gal(b1-3)GlcNAc(b1-2)Man(a1-6)]Man(b1-4)GlcNAc(b1-4)GlcNAc
Outline: as §1

[6] = biological target: Neu5Ac(a2-3)Gal(b1-3)GlcNAc(b1-3)Gal(b1-3)GlcNAc
Outline: as §1

[7] = biological target: Neu5Ac(a2-3)Gal(b1-3)GlcNAc(b1-3)Gal(b1-4)GlcNAc
Outline: as §1

[8] = biological target: Neu5Ac(a2-3)Gal(b1-3)GlcNAc(b1-3)GalNAc
Outline: as §1

[9] = biological target: Neu5Ac(a2-3)Gal(b1-3)GlcNAc(b1-4)Gal(b1-4)Glc
Outline: as §1

[10] = biological target: Neu5Ac(a2-3)Gal(b1-3)GlcNAc(b1-6)GalNAc
Outline: as §1

[11] = biological target: Neu5Ac(a2-3)Gal(b1-3)GlcNAc6S
Outline: as §1

[12] = biological target: Neu5Ac(a2-3)Gal(b1-3)[Fuc(a1-4)]GlcNAc
Outline: as §1

[13] = biological target: Neu5Ac(a2-3)Gal(b1-3)[Fuc(a1-4)]GlcNAc(b1-3)Gal(b1-3)[Fuc(a1-4)]GlcNAc
Outline: as §1

[14] = biological target: Neu5Ac(a2-3)Gal(b1-3)[Fuc(a1-4)]GlcNAc(b1-3)Gal(b1-4)[Fuc(a1-3)]GlcNAc
Outline: as §1

[15] = biological target: Neu5Ac(a2-3)Gal(b1-3)[GlcNAc(b1-6)]GalNAc
Outline: as §1

[16] = biological target: Neu5Ac(a2-3)Gal(b1-3)[Neu5Ac(a2-3)Gal(b1-4)]GlcNAc
Outline: as §1

[17] = biological target: Neu5Ac(a2-3)Gal(b1-3)[Neu5Ac(a2-6)]GalNAc
Outline: as §1

[18] = biological target: Neu5Ac(a2-3)Gal(b1-3)[Neu5Ac(a2-6)]GlcNAc(b1-3)[Fuc(a1-3)[Gal(b1-4)]GlcNAc(b1-6)]Gal(b1-4)Glc
Outline: as §1

[19] = biological target: Neu5Ac(a2-3)Gal(b1-3)]Neu5Ac(a2-3)Gal(b1-4)]GlcNAc
Outline: as §1

[20] = biological target: Neu5Ac(a2-3)Gal(b1-4)Glc
Outline: as §1

[21] = biological target: Neu5Ac(a2-3)Gal(b1-4)GlcNAc
Outline: as §1

[22] = biological target: Neu5Ac(a2-3)Gal(b1-4)GlcNAc(b1-2)Man
Outline: as §1

[23] = biological target: Neu5Ac(a2-3)Gal(b1-4)GlcNAc(b1-2)Man(a1-3)[GlcNAc(b1-4)][Neu5Ac(a2-3)Gal(b1-4)GlcNAc(b1-2)Man(a1-6)]Man(b1-4)GlcNAc(b1-4)GlcNAc
Outline: as §1

[24] = biological target: Neu5Ac(a2-3)Gal(b1-4)GlcNAc(b1-2)Man(a1-3)[Neu5Ac(a2-3)Gal(b1-4)GlcNAc(b1-2)Man(a1-6)]Man(b1-4)GlcNAc(b1-4)GlcNAc
Outline: as §1

[25] = biological target: Neu5Ac(a2-3)Gal(b1-4)GlcNAc(b1-2)Man(a1-3)[Neu5Ac(a2-3)Gal(b1-4)GlcNAc(b1-2)Man(a1-6)]Man(b1-4)GlcNAc(b1-4)[Fuc(a1-6)]GlcNAc
Outline: as §1

[26] = biological target: Neu5Ac(a2-3)Gal(b1-4)GlcNAc(b1-2)Man(a1-3)[Neu5Ac(a2-6)Gal(b1-4)GlcNAc(b1-2)Man(a1-6)]Man(b1-4)GlcNAc(b1-4)GlcNAc
Outline: as §1

[27] = biological target: Neu5Ac(a2-3)Gal(b1-4)GlcNAc(b1-2)[Neu5Ac(a2-3)Gal(b1-4)GlcNAc(b1-4)]Man(a1-3)[GlcNAc(b1-4)][Neu5Ac(a2-3)Gal(b1-4)GlcNAc(b1-2)[Neu5Ac(a2-3)Gal(b1-4)GlcNAc(b1-6)]Man(a1-6)]Man(b1-4)GlcNAc(b1-4)GlcNAc
Outline: as §1

[28] = biological target: Neu5Ac(a2-3)Gal(b1-4)GlcNAc(b1-2)[Neu5Ac(a2-3)Gal(b1-4)GlcNAc(b1-4)]Man(a1-3)[GlcNAc(b1-4)][Neu5Ac(a2-3)Gal(b1-4)GlcNAc(b1-4)Man(a1-6)]Man(b1-4)GlcNAc(b1-4)GlcNAc
Outline: as §1

[29] = biological target: Neu5Ac(a2-3)Gal(b1-4)GlcNAc(b1-2)[Neu5Ac(a2-3)Gal(b1-4)GlcNAc(b1-6)]Man(a1-6)[Neu5Ac(a2-3)Gal(b1-4)GlcNAc(b1-2)Man(a1-3)]Man(b1-4)GlcNAc(b1-4)GlcNAc
Outline: as §1

[30] = biological target: Neu5Ac(a2-3)Gal(b1-4)GlcNAc(b1-2)[Neu5Ac(a2-3)Gal(b1-4)GlcNAc(b1-6)]Man(a1-6)[Neu5Ac(a2-3)Gal(b1-4)GlcNAc(b1-2)Man(a1-3)][GlcNAc(b1-4)]Man(b1-4)GlcNAc(b1-4)GlcNAc
Outline: as §1

[31] = biological target: Neu5Ac(a2-3)Gal(b1-4)GlcNAc(b1-3)Gal
Outline: as §1

[32] = biological target: Neu5Ac(a2-3)Gal(b1-4)GlcNAc(b1-3)Gal(b1-3)GlcNAc
Outline: as §1

[33] = biological target: Neu5Ac(a2-3)Gal(b1-4)GlcNAc(b1-3)Gal(b1-4)GlcNAc
Outline: as §1

[34] = biological target: Neu5Ac(a2-3)Gal(b1-4)GlcNAc(b1-3)Gal(b1-4)GlcNAc(b1-2)Man(a1-3)[Neu5Ac(a2-3)Gal(b1-4)GlcNAc(b1-3)Gal(b1-4)GlcNAc(b1-2)Man(a1-6)]Man(b1-4)GlcNAc(b1-4)GlcNAc
Outline: as §1

[35] = biological target: Neu5Ac(a2-3)Gal(b1-4)GlcNAc(b1-3)Gal(b1-4)GlcNAc(b1-3)Gal(b1-4)GlcNAc
Outline: as §1

[36] = biological target: Neu5Ac(a2-3)Gal(b1-4)GlcNAc(b1-3)Gal(b1-4)GlcNAc(b1-3)Gal(b1-4)GlcNAc(b1-2)Man(a1-3)[Neu5Ac(a2-3)Gal(b1-4)GlcNAc(b1-3)Gal(b1-4)GlcNAc(b1-3)Gal(b1-4)GlcNAc(b1-2)Man(a1-6)]GalNAc
Outline: as §1

[37] = biological target: Neu5Ac(a2-3)Gal(b1-4)GlcNAc(b1-3)Gal(b1-4)GlcNAc(b1-3)GalNAc
Outline: as §1

[38] = biological target: Neu5Ac(a2-3)Gal(b1-4)GlcNAc(b1-3)Gal(b1-4)GlcNAc(b1-3)[Neu5Ac(a2-3)Gal(b1-4)GlcNAc(b1-3)Gal(b1-4)GlcNAc(b1-6)]GalNAc
Outline: as §1

[39] = biological target: Neu5Ac(a2-3)Gal(b1-4)GlcNAc(b1-3)Gal(b1-4)GlcNAc(b1-6)[Gal(b1-3)]GalNAc
Outline: as §1

[40] = biological target: Neu5Ac(a2-3)Gal(b1-4)GlcNAc(b1-3)Gal(b1-4)[Fuc(a1-3)]GlcNAc
Outline: as §1

[41] = biological target: Neu5Ac(a2-3)Gal(b1-4)GlcNAc(b1-3)GalNAc
Outline: as §1

[42] = biological target: Neu5Ac(a2-3)Gal(b1-4)GlcNAc(b1-3)[Neu5Ac(a2-3)Gal(b1-4)GlcNAc(b1-6)]GalNAc
Outline: as §1

[43] = biological target: Neu5Ac(a2-3)Gal(b1-4)GlcNAc(b1-6)GalNAc
Outline: as §1

[44] = biological target: Neu5Ac(a2-3)Gal(b1-4)GlcNAc(b1-6)[Gal(b1-3)]GalNAc
Outline: as §1

[45] = biological target: Neu5Ac(a2-3)Gal(b1-4)GlcNAc(b1-6)[Neu5Ac(a2-3)Gal(b1-3)]GalNAc
Outline: as §1

B1: SJA (Sophora japonica) (protein)
chain: FLGLFNSGGYSSSYQIVAVEFDTYINEWDPKTRHIGIDINSINSTKTVTWGWENGEVAIVLISYKAATETLTVSLTYPSSQTSYILSAAVDLKSILPEWVRIGF
- glycan array binding signal (z-score) [1]: -0.268
- glycan array binding signal (z-score) [2]: -0.139
- glycan array binding signal (z-score) [3]: -0.114
- glycan array binding signal (z-score) [4]: -0.271
- glycan array binding signal (z-score) [5]: -0.041
- glycan array binding signal (z-score) [6]: -0.369
- glycan array binding signal (z-score) [7]: -0.131
- glycan array binding signal (z-score) [8]: -0.171
- glycan array binding signal (z-score) [9]: -0.315
- glycan array binding signal (z-score) [10]: -0.305
- glycan array binding signal (z-score) [11]: 0.007
- glycan array binding signal (z-score) [12]: -0.315
- glycan array binding signal (z-score) [13]: 0.035
- glycan array binding signal (z-score) [14]: -0.219
- glycan array binding signal (z-score) [15]: -0.156
- glycan array binding signal (z-score) [16]: -0.179
- glycan array binding signal (z-score) [17]: -0.144
- glycan array binding signal (z-score) [18]: -0.162
- glycan array binding signal (z-score) [19]: -0.446
- glycan array binding signal (z-score) [20]: -0.124
- glycan array binding signal (z-score) [21]: -0.241
- glycan array binding signal (z-score) [22]: -0.196
- glycan array binding signal (z-score) [23]: -0.309
- glycan array binding signal (z-score) [24]: 0.029
- glycan array binding signal (z-score) [25]: -0.101
- glycan array binding signal (z-score) [26]: -0.256
- glycan array binding signal (z-score) [27]: -0.432
- glycan array binding signal (z-score) [28]: -0.125
- glycan array binding signal (z-score) [29]: -0.494
- glycan array binding signal (z-score) [30]: -0.118
- glycan array binding signal (z-score) [31]: -0.375
- glycan array binding signal (z-score) [32]: 0.02
- glycan array binding signal (z-score) [33]: -0.172
- glycan array binding signal (z-score) [34]: 0.783
- glycan array binding signal (z-score) [35]: -0.183
- glycan array binding signal (z-score) [36]: 3.51
- glycan array binding signal (z-score) [37]: -0.357
- glycan array binding signal (z-score) [38]: -0.296
- glycan array binding signal (z-score) [39]: 0.183
- glycan array binding signal (z-score) [40]: -0.152
- glycan array binding signal (z-score) [41]: -0.231
- glycan array binding signal (z-score) [42]: -0.202
- glycan array binding signal (z-score) [43]: -0.331
- glycan array binding signal (z-score) [44]: -0.206
- glycan array binding signal (z-score) [45]: -0.306

Source: the supplement of paper PMC8728848
